Test results from paper PMC8329197, “Compounds targeting OSBPL7 increase ABCA1-dependent cholesterol efflux preserving kidney function in two models of kidney disease” (Nature Communications, 2021).

Experiments:
Col4a3 KO mice = assay: Alport syndrome model: ACR, serum creatinine, BUN, body weight (also vs ramipril); conditions: Col4A3 KO, age 8 weeks, Cpd G 100 mg/Kg/day
[1] = system: Adriamycin (ADR)-induced nephropathy in Balb/c mice; assay: ADR nephropathy: blood urea nitrogen (BUN) and serum creatinine; type: in vivo, mouse; conditions: 28 days treatment
From the text: Supplement 41467_2021_24890_MOESM5_ESM.xlsx, sheet "Supplementary Table 4" | column: ADR+ Cpd A; ADR+ Cpd G; ADR+ Cpd C

[2] = system: Adriamycin (ADR)-induced nephropathy in Balb/c mice; assay: ADR nephropathy: serum cholesterol and triglycerides; type: in vivo, mouse; conditions: ADR-injected mice, 28-day treatment

With `O=C(N[C@@H]1CCCC[C@H]1O)c1cnc(OCC(F)(F)F)c(-c2ccc(Cl)c(Cl)c2)c1` [Cpd G] the “SERUM CREATININE, Median” value (Col4a3 KO mice) was 2.85 µg/mL, the “WEIGHT (g), Median” value (Col4a3 KO mice) was 15.61 g and the “BUN, QR(25)” value ([1]; 25th quartile) was 15 mg/dL. For the same compound, the “sCre, QR(25)” value ([1]; 25th quartile) was 0.1025 mg/dL, the “BUN, QR(75)” value ([1]; 75th quartile) was 17.75 mg/dL and the “sCre, QR(75)” value ([1]; 75th quartile) was 0.12 mg/dL. For the same compound, the “BUN, Max” value ([1]; group maximum) was 22 mg/dL, the “sCre, Max” value ([1]; group maximum) was 0.14 mg/dL and the “BUN, Median” value ([1]; group median) was 16 mg/dL. For the same compound, the “sCre, Median” value ([1]; group median) was 0.115 mg/dL, the “BUN, Min” value ([1]; group minimum) was 13 mg/dL and the “sCre, Min” value ([1]; group minimum) was 0.09 mg/dL. The “Serum cholesterol, QR(25)” value ([2]; 25th quartile) was 94.5 mg/dL, the “Serum triglycerides, QR(25)” value ([2]; 25th quartile) was 87.75 mg/dL and the “Serum cholesterol, QR(75)” value ([2]; 75th quartile) was 113.75 mg/dL. For the same compound, the “Serum triglycerides, QR(75)” value ([2]; 75th quartile) was 131.25 mg/dL, the “Serum cholesterol, Max” value ([2]; group maximum) was 121 mg/dL and the “Serum triglycerides, Max” value ([2]; group maximum) was 140 mg/dL. The “Serum cholesterol, Median” value ([2]; group median) was 104 mg/dL, the “Serum triglycerides, median” value ([2]; group median) was 113 mg/dL and the “Serum cholesterol, Min” value ([2]; group minimum) was 85 mg/dL. The “Serum triglycerides, Min” value ([2]; group minimum) was 68 mg/dL.
